{"source": "PubChem BioAssay AID1468", "about": "(National Center for Advancing Translational Sciences (NCATS), 2008)", "note": "The whole screen tested about 280,000 compounds, of which about 1,100 (0.39%) were called active. The inconclusive results got no clear call from the source; some entries with a clear call stand among them for comparison. The call rests on the fitted dose curve; in most records, active means well fitted inhibition curve with a large enough effect; inconclusive means small, poorly fitted or top-dose-only effect, or effect the other way; inactive means flat fitted curve, though single readings scatter. No potency is given beside an inconclusive call; the fits are too rough. On the % scale 0 is the no-effect control and ±100 the full control effect; potency means the concentration at half of the fitted maximal effect; tags describe the fitted curve by direction and shape."}
{"biological_target": "Microtubule-associated protein tau (Homo sapiens) (UniProt P10636)", "sequence (P10636 whole entry, looked up, the tested form may be a part)": "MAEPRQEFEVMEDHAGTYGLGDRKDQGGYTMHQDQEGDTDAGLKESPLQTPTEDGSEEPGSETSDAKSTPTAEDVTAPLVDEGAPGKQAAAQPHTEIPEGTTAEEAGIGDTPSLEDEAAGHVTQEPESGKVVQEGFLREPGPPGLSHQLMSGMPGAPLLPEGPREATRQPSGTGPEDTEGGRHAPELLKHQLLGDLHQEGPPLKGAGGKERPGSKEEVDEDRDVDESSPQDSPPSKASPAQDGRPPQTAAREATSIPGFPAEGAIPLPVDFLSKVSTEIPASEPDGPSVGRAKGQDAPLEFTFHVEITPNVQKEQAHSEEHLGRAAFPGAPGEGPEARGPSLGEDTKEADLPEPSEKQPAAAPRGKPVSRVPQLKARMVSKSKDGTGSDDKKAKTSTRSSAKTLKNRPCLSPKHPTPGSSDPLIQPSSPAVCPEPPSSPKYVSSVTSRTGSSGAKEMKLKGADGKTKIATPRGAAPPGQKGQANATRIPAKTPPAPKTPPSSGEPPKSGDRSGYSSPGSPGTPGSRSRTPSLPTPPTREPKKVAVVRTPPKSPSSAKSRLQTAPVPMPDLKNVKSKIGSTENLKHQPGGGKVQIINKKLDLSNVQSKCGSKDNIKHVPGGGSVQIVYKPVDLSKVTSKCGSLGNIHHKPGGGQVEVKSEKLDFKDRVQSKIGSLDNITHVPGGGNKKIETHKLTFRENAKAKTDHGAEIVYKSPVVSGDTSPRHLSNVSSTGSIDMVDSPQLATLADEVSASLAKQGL", "assay": "qHTS for Inhibitors of Tau Fibril Formation, Fluorescence Polarization; further: nearly all actives have a fitted effect of over 55% in size", "settings": "K18 P301L tau heparin fibrillization, Alexa594 FP, 6 h; series mostly up to 57.7 µM; activity, negative = inhibition: at the top concentration", "procedure,_shortened": "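Human K18 P301L fragment (15 uM unlabeled plus 0.24 uM Alexa 594-labeled) in 100 mM sodium acetate pH 7 with compound, aggregation induced by 20 uM heparin for 6 hr at 37 C. ThT (30 uM) added for 1 hr, then Alexa 594 FP read.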"}
{"smiles": "CC(=O)c1ccc(OCC(C)C)c(CN2CCCCC2)c1", "Potency": "inconclusive [inhibitor, single point]"}
{"smiles": "O=C(O)c1ccc(NC2=C(N3CCOCC3)C(=O)c3ccccc3C2=O)cc1", "Potency": "inconclusive [inhibitor, partial curve, poor fit]"}
{"smiles": "CC1(OC(=O)C2CCCC2)C(=O)C=C2C=C(c3ccsc3)N(Cc3ccccc3)C=C2C1=O", "note": "(stereo not drawn)", "Potency": "inconclusive [inhibitor, partial curve]"}
{"smiles": "CCOc1ccc(CNC(=O)Cn2ccc3cc(S(=O)(=O)N4CCCCC4)ccc32)cc1", "activity, negative = inhibition": "inactive: 2.75%"}
{"smiles": "COc1cc(OC)cc(C(=O)Nc2cc(-c3nc4cccnc4s3)ccc2C)c1", "Potency": "inconclusive [inhibitor, single point]"}
{"smiles": "CC1Cc2ccccc2N1C(=O)CSc1nnc(NC(=O)Cc2cccs2)s1", "note": "(stereo not drawn)", "activity, negative = inhibition": "inactive: 1.13%"}
{"smiles": "CCC(C(=O)Nc1ccc(C(=O)OC)cc1)n1nc(-c2ccc(C)c(C)c2)ccc1=O", "note": "(stereo not drawn)", "activity, negative = inhibition": "inactive: -13.2%"}
{"smiles": "O=C(/C=C/c1ccc(O)cc1)c1c(O)cc(O)cc1O", "Potency": "inconclusive [activator, single point]"}
{"smiles": "COc1ccc(S(=O)(=O)Nc2ccc(O)c3ccccc23)cc1", "Potency": "inconclusive [inhibitor, single point]"}
{"smiles": "COc1ccc(NC2=CC(c3cccc(OC)c3)N(c3ccc(OC)cc3)C2=O)cc1", "note": "(stereo not drawn)", "activity, negative = inhibition": "inactive: -10.8%"}
{"smiles": "COc1cccc(NC(=O)CSC2=Nc3ccccc3C3=NC(CC(=O)NCc4ccc5c(c4)OCO5)C(=O)N23)c1", "note": "(stereo not drawn)", "Potency": "inconclusive [activator, partial curve]"}
{"smiles": "O=C(CCc1nc2ccccc2c(=O)[nH]1)NCc1ccccn1", "Potency": "inconclusive [inhibitor, single point]"}
{"smiles": "CCOC(=O)c1c(NC(=O)CCN2CCOCC2)sc2c1CC(C)(C)OC2", "activity, negative = inhibition": "inactive: -5.08%"}
{"smiles": "Cc1sc(NC(=O)CCCC(=O)O)c(C#N)c1C", "activity, negative = inhibition": "inactive: 1.31%"}
{"smiles": "COc1ccc(C2C(=O)N(C3CCC(C)CC3)CC(=O)N2C2CCCC2)cc1OC", "note": "(stereo not drawn)", "activity, negative = inhibition": "inactive: 0.147%"}
{"smiles": "CCc1nc(NCc2cccnc2)c2oc3ccccc3c2n1", "Potency": "inconclusive [inhibitor, single point]"}
{"smiles": "CSc1nn(Cc2cccc(Cl)c2)c(N(C(C)=O)C(C)=O)c1S(=O)(=O)c1ccccc1", "Potency": "inconclusive [inhibitor, partial curve]"}
{"smiles": "O=C(/C=C/c1ccc(Cl)cc1)NC(=S)Nc1ccc(NC(=O)c2ccco2)cc1", "Potency": "inconclusive [inhibitor, partial curve]"}
{"smiles": "Cc1cc(NC(=O)CSc2nc3c([nH]c4ccccc43)c(=O)n2-c2cccc(C(F)(F)F)c2)no1", "Potency": "inconclusive [inhibitor, single point]"}
{"smiles": "S=c1[nH]nc(COc2ccccc2)n1Cc1ccccc1", "Potency": "inconclusive [activator, single point]"}
{"smiles": "CC(OC(=O)CCc1nc2ccccc2[nH]c1=O)c1ccccc1", "note": "(stereo not drawn)", "Potency": "inconclusive [inhibitor, single point]"}
{"smiles": "CCc1ccc(S(=O)(=O)N(C(=O)c2ccncc2)c2ccc(OC(=O)c3ccncc3)cc2)cc1", "Potency": "inconclusive [activator, single point]"}
{"smiles": "CCS(=O)(=O)c1ccccc1C(=O)Nc1ccc(-c2nc3ccccc3s2)cc1", "Potency": "inconclusive [inhibitor, partial curve]"}
{"smiles": "CC1CCC(C(C)C)C(OP(=O)(c2ccc(N(C)C)cc2)C(O)c2cccnc2)C1", "note": "(stereo not drawn)", "activity, negative = inhibition": "inactive: 7.8%"}
{"smiles": "O=C(Nc1ccc2nc(SCCOc3ccccc3Cl)sc2c1)c1ccc2c(c1)OCO2", "Potency": "inconclusive [inhibitor, full curve]"}
{"smiles": "COc1cc(OC)c(NC(=O)C(Cc2ccccc2)NS(=O)(=O)c2cccc3nsnc23)cc1Cl", "note": "(stereo not drawn)", "activity, negative = inhibition": "inactive: -20%"}
{"smiles": "Cc1c(C(=O)N(Cc2ccco2)Cc2ccccc2Cl)oc2ccc(F)cc12", "activity, negative = inhibition": "inactive: -10.5%"}
{"smiles": "C=CCn1c(=O)c2ccccc2n2c(SCC(N)=O)nnc12", "activity, negative = inhibition": "inactive: 5.76%"}
{"smiles": "COc1ccc2nc3oc(C(=O)N4CCN(c5cccc(C(F)(F)F)c5)CC4)cc3cc2c1", "activity, negative = inhibition": "inactive: -1.13%"}
{"smiles": "Cc1ccc(N=c2ssnc2Cl)cc1", "Potency": "inconclusive [inhibitor, partial curve]"}
{"smiles": "CCOC(=O)c1sc(NC(=O)c2cccnc2)c(C#N)c1C", "activity, negative = inhibition": "inactive: 5.04%"}
{"smiles": "CCOC(=O)c1[nH]c(C)c(C(=O)c2cc(F)ccc2F)c1C", "activity, negative = inhibition": "inactive: 2.88%"}
{"smiles": "CCC(C)C1NC(=S)N(Cc2ccccc2)C1=O", "note": "(stereo not drawn)", "Potency": "inconclusive [inhibitor, partial curve, poor fit]"}
{"smiles": "N[C@H](C(=O)O)c1cccc(O)c1", "Potency": "inconclusive [inhibitor, single point]"}
{"smiles": "Nc1ccc2oc(-c3ccccc3Cl)cc(=O)c2c1O", "Potency": "inconclusive [activator, single point]"}
{"smiles": "Cc1ccc(C)c(Nc2nn3c(=O)c4cc5c(cc4nc3s2)OCO5)c1", "Potency": "inconclusive [activator, partial curve, poor fit]"}
{"smiles": "COc1ccc(C)cc1NC(=O)c1cc(S(=O)(=O)N2CCc3ccccc3C2)ccc1F", "Potency": "inconclusive [inhibitor, partial curve]"}
{"smiles": "Cc1oc(-c2ccc(C(=O)NCc3ccccc3Cl)cc2)nc1CN1CCc2ccccc21", "Potency": "inconclusive [activator, full curve, poor fit]"}
{"smiles": "Oc1ccc(Br)cc1-c1nc2cnccn2c1NC1CCCC1", "Potency": "inconclusive [activator, partial curve, poor fit]"}
{"smiles": "Cc1ccc(S(=O)(=O)C(CNC(=O)C(=O)NCCc2ccc(Cl)cc2)c2cccs2)cc1", "note": "(stereo not drawn)", "Potency": "inconclusive [inhibitor, partial curve]"}
{"smiles": "COc1ccc2[nH]c3nc(SCc4nnc(-c5ccc(C)cc5)o4)nnc3c2c1", "Potency": "inconclusive [inhibitor, full curve]"}
{"smiles": "Cc1ccc(CCNC(=O)c2c[nH]c3ccc(S(=O)(=O)Nc4cccc(C(F)(F)F)c4)cc3c2=O)cc1", "Potency": "active: 7.94 µM"}
{"smiles": "Cc1ccc(CN2CCN(Cc3cnc(C)s3)CC2CCO)o1", "note": "(stereo not drawn)", "Potency": "inconclusive [inhibitor, single point]"}
{"smiles": "CNC(=O)C(=O)NCC1OCCCN1S(=O)(=O)c1cccs1", "note": "(stereo not drawn)", "activity, negative = inhibition": "inactive: 3.76%"}
{"smiles": "CC[C@@]1([C@@H]2O[C@@H]([C@H]3O[C@@](O)(CO)[C@H](C)C[C@@H]3C)C[C@@H]2C)CC[C@H]([C@]2(C)CC[C@]3(C[C@H](O)[C@@H](C)[C@@H]([C@@H](C)[C@@H](OC)C(C)C(=O)O)O3)O2)O1", "note": "(stereo partly drawn)", "Potency": "inconclusive [inhibitor, partial curve]"}
{"smiles": "FC(F)(F)c1nnc2n1N=C(c1cccs1)CS2", "Potency": "inconclusive [inhibitor, single point]"}
{"smiles": "COc1cc2cc(C(=O)O)[nH]c2c(OC)c1OC", "activity, negative = inhibition": "inactive: -2.93%"}
{"smiles": "CSC(=S)N/N=C/c1c[nH]c2ccccc12", "Potency": "inconclusive [activator, full curve, poor fit]"}
{"smiles": "Cc1ccc(NC(=O)C(Cc2ccccc2)N2Cc3ccccc3C2=O)cc1Cl", "note": "(stereo not drawn)", "Potency": "inconclusive [inhibitor, single point]"}
{"smiles": "CCc1ccc(N2CSC3=C(C#N)C(c4cccs4)CC(=O)N3C2)cc1", "note": "(stereo not drawn)", "Potency": "inconclusive [inhibitor, single point]"}
{"smiles": "CCCCCCn1nc(C(=O)OCC(=O)c2c(N)n(C)c(=O)n(C)c2=O)c2ccccc2c1=O", "Potency": "inconclusive [inhibitor, partial curve]"}
{"smiles": "O=C(CCC1N=C2c3ccccc3N=C(SCC(=O)Nc3ccc(F)cc3)N2C1=O)NCc1cccs1", "note": "(stereo not drawn)", "activity, negative = inhibition": "inactive: 1.74%"}
{"smiles": "Cc1cccc(NC(=O)c2ccc(CNS(=O)(=O)c3ccc4c(c3)C(C)(C)C(=O)N4C)cc2)c1", "activity, negative = inhibition": "inactive: 6.8%"}
{"smiles": "Cc1nn2c(Nc3ccccc3)c3c(nc2c1-c1ccccc1)CCC3", "Potency": "inconclusive [activator, partial curve]"}
{"smiles": "CSc1cccc(NC(=O)CSc2ccc(Cl)cc2)c1", "Potency": "inconclusive [inhibitor, single point]"}
{"smiles": "Cc1ccc(C2=NN(C(=S)Nc3ccccc3)C(c3ccco3)C2)cc1", "note": "(stereo not drawn)", "activity, negative = inhibition": "inactive: -4.91%"}
{"smiles": "O=C(NCCOCCn1c(=O)oc2ccccc21)Nc1cccc(Cl)c1", "Potency": "inconclusive [inhibitor, single point]"}
{"smiles": "O=C(Nc1cc2c(cc1C(=O)c1ccccc1Br)OCCO2)c1cccc(Cl)c1", "Potency": "inconclusive [inhibitor, partial curve]"}
{"smiles": "COc1ccc2c(c1)c1c(c(=O)n(-c3cccc(C)c3)c(=O)n1Cc1cccc(Cl)c1)n2C", "activity, negative = inhibition": "inactive: 3.99%"}
{"smiles": "COCCn1c(SCC(=O)N2CCCCC2)nc2ccccc2c1=O", "activity, negative = inhibition": "inactive: -0.723%"}
{"smiles": "O=C1NC(=S)/C(=C\\c2ccc(-c3ccccc3Cl)o2)S1", "Potency": "inconclusive [inhibitor, partial curve]"}
{"smiles": "O=C1CN(C(=O)CSc2nnc(-c3ccccc3)n2Cc2ccc3c(c2)OCO3)c2ccccc2N1", "Potency": "inconclusive [inhibitor, single point]"}
{"smiles": "COc1cccc(-c2nnc(NC(=O)C(C)C)o2)c1", "Potency": "inconclusive [inhibitor, single point]"}
{"smiles": "CCN(CC)S(=O)(=O)c1ccc(N2CCN(S(=O)(=O)c3ccc4c(c3)OCCO4)CC2)nc1", "activity, negative = inhibition": "inactive: 11.7%"}
{"smiles": "CC[C@@H]1Cc2cc(O)ccc2C2=C1c1ccc(O)cc1C[C@H]2CC", "Potency": "inconclusive [inhibitor, single point]"}
{"smiles": "COc1ccc(C(C)(C)C)cc1NC(=O)CNc1cccc2ccccc12", "Potency": "inconclusive [activator, full curve, poor fit]"}
{"smiles": "Cc1nc2ncccn2c1-c1csc(NCc2ccco2)n1", "activity, negative = inhibition": "inactive: 3.31%"}
{"smiles": "Nc1sc(-c2ccccc2)cc1C(=O)N/N=C/c1ccc(Cl)cc1", "activity, negative = inhibition": "inactive: -4.33%"}
